Measurements from the supplement of paper PMC4604168 (melanoma cell lines).
The list shows a part of the results. Single values are uncertain, as repeats are few or missing.

Tests used:
Assay in all cases: cell count relative to DMSO control; melanoma cells; higher = more viable cells
Details in all cases: library dose: low library concentration; 72 h
[1] = tested on: WM115
[2] = tested on: WM1716
[3] = tested on: WM1745
[4] = tested on: WM3526
[5] = tested on: WM3619
[6] = tested on: WM451Lu
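Further: cell number obtained by counting DAPI-stained nuclei in high-throughput microscope images with image analysis software, screen run in 1,536-well plates.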

SMILES | cell count [1] [%] | cell count [2] [%] | cell count [3] [%] | cell count [4] [%] | cell count [5] [%] | cell count [6] [%]
C[C@]12O[C@H](C[C@]1(O)CO)n1c3ccccc3c3c4c(c5c6ccccc6n2c5c31)CNC4=O [Lestaurtinib] + NC1(c2ccc(-c3nc4ccn5c(=O)[nH]nc5c4cc3-c3ccccc3)cc2)CCC1 [MK2206] (first compound 0.004 µM, partner dose 0.4 µM) | 88.9 | 89 | 85.8 | 63.2 | 77.8 | 98.6
N.N.[Cl][Pt][Cl] [cisplatin] + COc1cc2ncnc(Nc3ccc(Oc4ccccc4)cc3)c2cc1OC [SrcI1] (first compound 1.6 µM, partner dose 2 µM) | 111 | 131 | 84.6 | 104 | 97 | 106
C[C@]12O[C@H](C[C@]1(O)CO)n1c3ccccc3c3c4c(c5c6ccccc6n2c5c31)CNC4=O [Lestaurtinib] + Cc1cc(SCc2sc(-c3ccc(C(F)(F)F)c(F)c3)nc2C)ccc1OCC(=O)O [GW0742] (first compound 0.004 µM, partner dose 2 µM) | 114 | 105 | 89.5 | 89.4 | 97.7 | 110
Cn1cc(C2=C(c3cn(C4CCN(Cc5ccccn5)CC4)c4ccccc34)C(=O)NC2=O)c2ccccc21 [Enzastaurin] + Cn1nnc2c(C(N)=O)ncn2c1=O [temozolomide] (first compound 0.8 µM, partner dose 2 µM) | 108 | 89.6 | 81 | 89.7 | 105 | 107
Cn1cc(C2=C(c3cn(C4CCN(Cc5ccccn5)CC4)c4ccccc34)C(=O)NC2=O)c2ccccc21 [Enzastaurin] + N#Cc1c(O)c2c(-c3ccc(-c4ccccc4O)cc3)csc2[nH]c1=O [A769662] (first compound 0.8 µM, partner dose 2 µM) | 124 | 114 | 83.6 | 108 | 134 | 117
N.N.[Cl][Pt][Cl] [cisplatin] + COc1cc(Nc2ncc(F)c(Nc3ccc4c(n3)NC(=O)C(C)(C)O4)n2)cc(OC)c1OC [Tamatinib] (first compound 1.6 µM, partner dose 0.4 µM) | 83.6 | 85.6 | 70.4 | 66.3 | 72.9 | 84
C[C@]12O[C@H](C[C@]1(O)CO)n1c3ccccc3c3c4c(c5c6ccccc6n2c5c31)CNC4=O [Lestaurtinib] + NCC(=O)Nc1ccc(-n2nc(C(F)(F)F)cc2-c2ccc3c(ccc4ccccc43)c2)cc1 [OSU03012] (first compound 0.004 µM, partner dose 1 µM) | 101 | 104 | 95.3 | 57.8 | 113 | 70.8
C[C@]12O[C@H](C[C@]1(O)CO)n1c3ccccc3c3c4c(c5c6ccccc6n2c5c31)CNC4=O [Lestaurtinib] + C[C@@H](Oc1cc(-c2cnn(C3CCNCC3)c2)cnc1N)c1c(Cl)ccc(F)c1Cl [Crizotinib] (first compound 0.004 µM, partner dose 0.2 µM) | 83.8 | 99.8 | 102 | 93.8 | 116 | 78.2
C[As](C)SC[C@H](NC(=O)CC[C@H](N)C(=O)O)C(=O)NCC(=O)O [Darinaparsin] + COc1cc(Nc2ncc(F)c(Nc3ccc4c(n3)NC(=O)C(C)(C)O4)n2)cc(OC)c1OC [Tamatinib] (first compound 0.4 µM, partner dose 0.4 µM) | 74.5 | 93.9 | 63.9 | 90.7 | 72 | 92.3
N.N.[Cl][Pt][Cl] [cisplatin] + COc1cc(N2CCC(N3CCN(C)CC3)CC2)ccc1Nc1ncc(Cl)c(Nc2ccccc2S(=O)(=O)C(C)C)n1 [NVP-TAE684] (first compound 1.6 µM, partner dose 0.08 µM) | 95.6 | 96.1 | 74.9 | 73.9 | 64.4 | 95.5
C[As](C)SC[C@H](NC(=O)CC[C@H](N)C(=O)O)C(=O)NCC(=O)O [Darinaparsin] + CCc1ccc(CCOc2ccc(CC3SC(=O)NC3=O)cc2)nc1 [pioglitazone] (first compound 0.4 µM, partner dose 2 µM) | 99.1 | 90.1 | 93.7 | 82.2 | 116 | 106
C[C@]12O[C@H](C[C@]1(O)CO)n1c3ccccc3c3c4c(c5c6ccccc6n2c5c31)CNC4=O [Lestaurtinib] + Cn1c(=O)n(-c2ccc(C(C)(C)C#N)cc2)c2c3cc(-c4cnc5ccccc5c4)ccc3ncc21 [NVP-BEZ235] (first compound 0.004 µM, partner dose 0.004 µM) | 96.8 | 94.2 | 88.9 | 82.3 | 88.5 | 92.7
